In PubChem BioAssay (Tox21):
“And” between values parts separate entries of the source, which are not always exact repeats. Equal values may be shown once. The inconclusive results got no clear call from the source; some entries with a clear call stand among them for comparison. For some of these results: Potencies beside an inconclusive call are fits to weak or partial responses and may not hold up. The source made the active and inactive calls. Unless noted, calls come from the whole dose curve; as a rule, active = well fitted curve in the direction sought with a large enough effect in the repeat runs; inconclusive = weak or mixed curves; inactive = no such curve, though single readings can be large; an effect the other way counts as inactive or inconclusive.

Legend:
[1] = qHTS assay for small molecule agonists of the p53 signaling pathway (AID 651631; calls by dose curve; note: nearly all actives have a fitted effect of over 15% in size; note: potency is the fitted concentration of half-maximal effect; for activation: % is set by controls: 0 for no effect and ±100 for the full control effect); conditions: HCT-116 p53RE-bla reporter, beta-lactamase FRET ratio, 16 h; activation: at 73.3 µM (top of the series) unless noted
In short: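 Readout was fluorescence from the LiveBLAzer FRET substrate, applied for 2 h at room temperature after 16 h compound exposure at 37 °C. Cells were the p53RE-bla HCT-116 line, with beta-lactamase driven by p53 response elements.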

[2] = qHTS assay for small molecule disruptors of the mitochondrial membrane potential - cell viability (AID 720634; calls by dose curve; note: potency is the fitted concentration of half-maximal effect; nearly all actives have a fitted effect of over 20% in size)
In short: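 ATP-based luminescent viability readout (CellTiter-Glo, 30 min, room temperature) in HepG2 cells multiplexed with the m-MPI membrane potential dye; compound exposure lasted 1 hr at 37 C.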

[3] = target: Glucocorticoid receptor (Homo sapiens) (UniProt P04150); assay: qHTS assay to identify small molecule agonists of the glucocorticoid receptor (GR) signaling pathway (AID 720691; active = well fitted activation curve with a large enough effect in the signal ratio in the repeat runs, not every such curve was filed as active; inconclusive = weak or mixed curves, or effect the other way; inactive = no such curve, though single readings can be large or run the other way; the % refers to the signal ratio; note: potency is the fitted concentration of half-maximal effect); conditions: GR-bla HeLa, beta-lactamase reporter ratio, 18 h; activation: at 62.4 µM (top of the series) unless noted
Chain of UniProt P04150 (P04150 whole entry, looked up): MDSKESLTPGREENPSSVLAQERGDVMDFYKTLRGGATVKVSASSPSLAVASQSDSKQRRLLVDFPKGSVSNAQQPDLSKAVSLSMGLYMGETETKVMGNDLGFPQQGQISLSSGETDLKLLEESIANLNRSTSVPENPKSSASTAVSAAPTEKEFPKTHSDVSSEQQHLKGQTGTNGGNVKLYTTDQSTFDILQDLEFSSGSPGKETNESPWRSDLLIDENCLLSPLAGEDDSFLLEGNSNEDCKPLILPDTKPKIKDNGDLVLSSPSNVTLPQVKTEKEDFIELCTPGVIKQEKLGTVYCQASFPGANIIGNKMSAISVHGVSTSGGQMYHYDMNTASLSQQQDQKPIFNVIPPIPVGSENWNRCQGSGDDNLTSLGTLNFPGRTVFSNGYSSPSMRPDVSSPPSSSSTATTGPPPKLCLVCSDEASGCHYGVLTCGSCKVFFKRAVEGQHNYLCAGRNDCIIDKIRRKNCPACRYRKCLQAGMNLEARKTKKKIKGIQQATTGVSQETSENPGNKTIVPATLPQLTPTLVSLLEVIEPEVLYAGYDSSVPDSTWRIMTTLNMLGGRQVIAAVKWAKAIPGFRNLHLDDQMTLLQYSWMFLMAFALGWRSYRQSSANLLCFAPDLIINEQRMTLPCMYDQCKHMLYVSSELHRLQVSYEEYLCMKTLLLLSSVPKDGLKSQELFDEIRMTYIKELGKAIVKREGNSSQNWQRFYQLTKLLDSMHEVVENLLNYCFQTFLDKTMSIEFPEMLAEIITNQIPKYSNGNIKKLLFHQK
In short: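 Cells: GR-bla HeLa, endogenous GR with stably integrated GRE-beta-lactamase reporter. Treatment 18 h, 37 C, compounds delivered in DMSO. Detection via LiveBLAzer B/G FRET substrate, 2 h RT, fluorescence intensity.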

[4] = target: Glucocorticoid receptor (Homo sapiens) (UniProt P04150); assay: qHTS assay to identify small molecule antagonists of the glucocorticoid receptor (GR) signaling pathway (AID 720692; active = well fitted inhibition curve with a large enough effect in the signal ratio in the repeat runs, not every such curve was filed as active; inconclusive = weak or mixed curves, or effect the other way; inactive = no such curve, though single readings can be large or run the other way; the % refers to the signal ratio; note: potency is the fitted concentration of half-maximal effect; for activity change, negative = inhibition: % is set by controls: 0 for no effect and ±100 for the full control effect); conditions: GR-bla HeLa, beta-lactamase FRET ratio, dexamethasone-stimulated, 18 h; activity change, negative = inhibition: at 58.5 µM (top of the series) unless noted
In short: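 Quantitative HTS in antagonist format: HeLa cells expressing endogenous GR and a stably integrated GRE-bla reporter, stimulated with 5 nM dexamethasone (final) alongside test compounds for 18 h.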

[5] = qHTS assay for identifying genotoxic compounds that show differential cytotoxicity against isogenic chicken DT40 cell lines with known DNA damage response pathways - wild type cell line (AID 743012); conditions: DT40 wild type chicken cells viability, CellTiter-Glo, 40 h; activity change, negative = cytotoxicity: at 68.4 µM (top of the series) unless noted; note: nearly all actives have a fitted effect of over 60% in size; note: potency is the fitted concentration of half-maximal effect
In short: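 Luminescent ATP viability signal (CellTiter-Glo, 30 min RT) recorded after wild type DT40 cells were incubated with compounds for 40 h at 37 C/5% CO2.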

[6] = qHTS assay for identifying genotoxic compounds that show differential cytotoxicity against isogenic chicken DT40 cell lines with known DNA damage response pathways - Rad54/Ku70 mutant cell line (AID 743015); conditions: DT40 Rad54/Ku70 mutant viability, CellTiter-Glo, 40 h; activity change, negative = cytotoxicity: at 66.8 µM (top of the series) unless noted; note: potency is the fitted concentration of half-maximal effect; nearly all actives have a fitted effect of over 60% in size
[7] = qHTS assay for small molecule disruptors of the mitochondrial membrane potential (AID 720635); conditions: HepG2 mitochondrial membrane potential, Mito-MPS dye ratio; note: potency is the fitted concentration of half-maximal effect; for ratio activity, negative = MMP loss: % is set by controls: 0 for no effect and ±100 for the full control effect
In short: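 HepG2 cells exposed to compound 1 hr at 37C, then Mito-MPS dye 30 min. Ratio read of aggregate (540/590 nm) versus monomer (490/535 nm) fluorescence.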

[8] = qHTS assay for identifying genotoxic compounds that show differential cytotoxicity against isogenic chicken DT40 cell lines with known DNA damage response pathways - Rev3 mutant cell line (AID 743014); conditions: chicken DT40 Rev3-/- viability, CellTiter-Glo, 40 h; activity, negative = cytotoxicity: at 68.4 µM (top of the series) unless noted; note: potency is the fitted concentration of half-maximal effect; nearly all actives have a fitted effect of over 55% in size
[9] = qHTS assay to test for compound auto fluorescence at 460 nm (blue) in HEK293 cell free culture (AID 720681); note: % is set by controls: 0 for no effect and ±100 for the full control effect
In short: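 Compounds were added to cell-free DMEM with 10% FBS and fluorescence read directly. The blue channel used 405 nm excitation and 460 nm emission, with triamterene as the reference fluorophore.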

[10] = qHTS assay to test for compound auto fluorescence at 460 nm (blue) in HEK293 cells (AID 720678); note: potency is the fitted concentration of half-maximal effect
In short: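 Cells were seeded and left to adhere for 4-5 hr at 37C. Compounds were then pin-transferred. After an overnight incubation at 37C under 5% CO2, intrinsic fluorescence at 405/460 nm was measured and referenced to triamterene.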

[11] = qHTS assay to identify small molecule antagonists of the glucocorticoid receptor (GR) signaling pathway - cell viability counter screen (AID 720693); conditions: GR-bla HeLa viability, CellTiter-Glo luminescence, 18 h, with 5 nM dexamethasone present; viability change, negative = cytotoxic: at 58.5 µM (top of the series) unless noted; note: potency is the fitted concentration of half-maximal effect; nearly all actives have a fitted effect of over 55% in size
[12] = ratio activity, negative = MMP loss: at 83.2 µM (top of the series) unless noted
Tags give direction and shape of the fitted curve or compound fluorescence and quenching.

Compound: Oc1c(Cl)c(Cl)c(Cl)c(Cl)c1Cl
- Potency [1]: active: 3.37 µM and active: 3.43 µM
- Potency [2]: inconclusive: 11.9 µM [cytotoxic, partial curve, poor fit]
- Potency [3]: inconclusive: 42.8 µM [cytotoxic, partial curve]
- Potency [4]: inconclusive: 5.39 µM [cytotoxic, partial curve, poor fit] and inconclusive: 27.5 µM [inhibitor]
- Potency [5]: inconclusive: 67.2 µM [cytotoxic] and inconclusive: 34.3 µM [cytotoxic, single point]
- Potency [6]: inconclusive: 67.2 µM [cytotoxic, single point] and inconclusive: 34.3 µM [cytotoxic, single point]

Compound: C=CC(=O)OC
- Potency [1]: inactive
- ratio activity, negative = MMP loss [7, 12]: inconclusive: 20.9% [at 95.3 µM]

Compound: CCN(CC)C(=O)C(C)Oc1cccc2ccccc12 (stereo not drawn)
- Potency [1]: inconclusive: 30.9 µM [falling, single point]
- Potency [2]: inconclusive: 27.3 µM [cytotoxic, partial curve]
- ratio activity, negative = MMP loss [7, 12]: inconclusive: 22.3%
- Potency [5]: inconclusive: 69.1 µM [cytotoxic, single point] and active: 10.9 µM

Compound: BrCBr
- Potency [1]: inactive
- Potency [7, 12]: inactive
- activity change, negative = inhibition [4]: inconclusive: 5.99% [at 78.9 µM]

Compound: COc1cc(OC)nc(Oc2cccc(Oc3nc(OC)cc(OC)n3)c2C(=O)O)n1
- Potency [1]: inactive
- ratio activity, negative = MMP loss [7, 12]: inconclusive: 17.5%

Compound: NNC(=O)c1cccnc1
- Potency [1]: inactive
- ratio activity, negative = MMP loss [7, 12]: inconclusive: 20% [at 95.3 µM]
- Potency [3]: inactive
- activity change, negative = inhibition [4]: inconclusive: -1.5% [at 78.9 µM]
- Potency [5]: inactive
- Potency [8]: inconclusive: 61.3 µM [cytotoxic, partial curve, poor fit]

Compound: CC(Cc1ccc2c(c1)OCO2)NO (stereo not drawn)
- Potency [1]: inactive
- ratio activity, negative = MMP loss [7, 12]: inconclusive: -10.8% [at 95.3 µM]
- activity change, negative = inhibition [4]: inconclusive: -2.28% [at 78.9 µM]

Compound: Oc1c(Cl)c(Cl)cc(Cl)c1Cl
- Potency [1]: inconclusive: 29.8 µM [cytotoxic, partial curve]
- Potency [7, 12]: active: 5.3 µM
- activation [3]: inconclusive: -0.402% [at 79.2 µM]
- Potency [8]: inconclusive: 74.8 µM [cytotoxic]
- Potency [6]: inconclusive: 74.8 µM [cytotoxic, single point]

Compound: NCCOS(=O)(=O)O
- activation [1]: inconclusive: -0.426%
- ratio activity, negative = MMP loss [7, 12]: inconclusive: 15.6%
- Potency [3]: inactive

Compound: CCCCN(N=O)C(=N)N[N+](=O)[O-]
- Potency [1]: active: 62.4 µM
- Potency [7, 12]: inactive
- Potency [4]: inconclusive: 50 µM [activator]

Compound: ClCc1ccc(Cl)cc1Cl
- Potency [1]: inconclusive: 48.6 µM [activator, partial curve, poor fit]
- Potency [7, 12]: inconclusive: 27.3 µM [activator, partial curve]

Compound: O=C(Cl)c1ccccc1
- Potency [1]: inactive
- ratio activity, negative = MMP loss [7, 12]: inconclusive: -6.21% [at 95.3 µM]

Compound: CCC(OC(C)=O)C(CC(C)NC)(c1ccccc1)c1ccccc1 (stereo not drawn)
- Potency [1]: inconclusive: 69.2 µM [cytotoxic, single point]
- Potency [7, 12]: active: 49 µM
- Potency [3]: inconclusive: 24.7 µM [rising, full curve, poor fit]
- activity change, negative = inhibition [4]: inconclusive: -47.1% [at 78.9 µM]

Compound: C=CC(C)=O
- Potency [1]: inactive
- Potency [7, 12]: inactive
- Potency [4]: inconclusive: 60.2 µM [activator, single point]

Compound: O=C1OC(c2ccc(O)c(S(=O)(=O)O)c2)(c2ccc(O)c(S(=O)(=O)O)c2)c2c(Br)c(Br)c(Br)c(Br)c21
- Potency [1]: inconclusive: 23.7 µM [rising, partial curve, poor fit]
- ratio activity, negative = MMP loss [7, 12]: inconclusive: -19.1%
- Potency [4]: inconclusive: 6.01 µM [activator]

Compound: CCCC[N+]1(C)CCCC1
- Potency [1]: inactive
- ratio activity, negative = MMP loss ([7]; at 83.2 µM (top of the series)): inconclusive: 32.5%
- ratio activity, negative = MMP loss ([7]; at 95.3 µM (top of the series)): inconclusive: 21.6%
- Potency [6]: inconclusive: 61.4 µM [cytotoxic, partial curve, poor fit]

Compound: CC(Cl)C(C)Cl (stereo not drawn)
- Potency [1]: inactive
- ratio activity, negative = MMP loss [7, 12]: inconclusive: 14.4%
- Potency [3]: inactive

Compound: CC(Cc1ccccc1)NCCn1cnc2c1c(=O)n(C)c(=O)n2C (stereo not drawn)
- Potency [1]: inactive
- Potency [7, 12]: inactive

Compound: CSc1ccc(C(=O)C(C)(C)N2CCOCC2)cc1
- Potency [1]: inactive
- ratio activity, negative = MMP loss [7, 12]: inconclusive: -22.6%
- Potency [9]: inactive

Compound: CC[C@@H](CO)NC(=O)[C@@H]1C=C2c3cccc4c3c(cn4C)C[C@H]2N(C)C1
- activation [1]: inconclusive: 7.51%
- ratio activity, negative = MMP loss [7, 12]: inconclusive: -1.8%
- Potency [10]: inconclusive: 17.8 µM [fluorescent, partial curve, poor fit]
- Potency [11]: inconclusive: 26.8 µM
- Potency [8]: inconclusive: 11.9 µM [cytotoxic, partial curve]
- Potency [6]: inconclusive: 11.9 µM [cytotoxic, partial curve]

Compound: c1ccc2c(c1)OCC(C1=NCCN1)O2 (stereo not drawn)
- Potency [1]: inconclusive: 33.5 µM [falling, single point]
- Potency [7, 12]: active: 27.8 µM
- Potency [3]: inconclusive: 10.7 µM [falling, partial curve, poor fit]
- activity change, negative = inhibition [4]: inconclusive: 48.7%
